According to PubChem BioAssay AID686978 (National Center for Advancing Translational Sciences (NCATS), 2013):
Hit rate of the full screen: of about 420,000 compounds, about 64,000 (15%) were called active. The inconclusive results got no clear call from the source; some entries with a clear call stand among them for comparison. Calls follow the shape of the dose curve; as a rule, active = well fitted inhibition curve with a large enough effect; inconclusive = small, poorly fitted or top-dose-only effect; inactive = flat fitted curve, though single readings scatter. Potencies of inconclusive entries are left out as doubtful fits.

Experiment: qHTS for Inhibitors of human tyrosyl-DNA phosphodiesterase 1 (TDP1): qHTS in cells in absence of CPT; also: nearly all actives have a fitted effect of over 55% in size
Conditions: DT40 Tdp1-/- hTDP1 cells, no CPT, ATP luminescence, 48 h; activity change, negative = growth inhibition: at 46.2 µM (top of the series) unless noted
How it was run: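 Chicken DT40 Tdp1-/- cells complemented with human TDP1, screened without camptothecin (DMSO vehicle only), 400 cells/well. Compounds pin-transferred, cells incubated at 37 °C for at least 48 hr. Growth read as ATP-dependent luminescence (CellTiter-Glo, 30 min at RT).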
% is scaled to controls: 0 for no effect and ±100 for the full control effect; potency is read from the fitted curve at half-maximal effect; tags tell the direction and shape of the fitted curve.

Row | SMILES | activity change, negative = growth inhibition | Potency
1 | COc1ccc(OC)c(NC(=O)Cc2ccc(NC3=NC4CS(=O)(=O)CC4S3)cc2)c1 (stereo unspecified) | inactive: -2.15% | –
2 | CCOC(=O)C(C(=O)Cc1ccccc1)c1ccccc1 (stereo unspecified) | inactive: -12.5% | –
3 | O=C(NCc1ccccc1)c1cc(C2CCCN(S(=O)(=O)c3ccccc3)C2)on1 (stereo unspecified) | – | inconclusive [inhibitor, single point]
4 | CC(=O)Nc1ccc(-c2ccnc3c2CC(C)(C(=O)NCCC(F)(F)F)O3)cc1 (stereo unspecified) | – | inconclusive [inhibitor, single point]
5 | C/C(=N\OCC(=O)Nc1ccc2c(c1)OCCO2)c1ccc2c(c1)OCCO2 | inactive: -22.8% | –
6 | c1ccc(CN2CCN(c3nc(-c4ccccc4)nc(-n4ccnc4)n3)CC2)cc1 | – | active: 18.4 µM
7 | Cc1nn(-c2ccccc2)c(CC(C)(C)C(=O)O)c1C(=O)O | inactive: -4.67% | –
8 | CCOc1ccc(-c2nnc(SCC(=O)Nc3cccc(C#N)c3)o2)cc1 | – | inconclusive [inhibitor, partial curve]
9 | CCNc1nc(NCC)n2c(SCC(=O)c3ccc(C(C)C)cc3)nnc2n1 | – | active: 25.9 µM
10 | C=CCC(CC)C(=O)NC(=O)N1CCCc2ccccc21 (stereo unspecified) | inactive: -1.44% | –
11 | COc1ccc(-c2c(C)c3ccc(O)c(CN4CCOCC4)c3oc2=O)cc1OC | – | inconclusive [inhibitor, single point]
12 | COC(=O)C1[C@H]2SC(C)(C)C(C(=O)OC)N2C(=O)N1Cc1ccccc1 (stereo partly specified) | inactive: -1.9% | –
13 | CC(=O)Nc1ccc(C(=O)Nc2cccc(-c3cnc4ccccc4n3)c2)cc1 | – | inconclusive [inhibitor, full curve, poor fit]
14 | O=C(Nc1cccc(F)c1)NC1(C(=O)N2CCOCC2)CCCCC1 | inactive: -1.17% | –
15 | CC1CCN(C(=O)Cn2c(-c3cccs3)cc3cc(Cl)ccc32)CC1 | – | inconclusive [inhibitor, single point]
16 | COc1cccc(NC(=O)Nc2ccc3c(c2)N(C)C(=O)c2ccccc2S3)c1 | – | inconclusive [inhibitor, single point]
17 | CC(C)(C)NC(=O)NCc1ccco1 | inactive: -7.35% | –
18 | Cn1c(=O)c2c(ncn2CC(COCc2ccccc2Cl)OCc2ccccc2Cl)n(C)c1=O (stereo unspecified) | – | inconclusive [inhibitor, single point]
19 | Cc1cc(C)cc(NC(=S)N2CCN(Cc3ccccc3)CC2)c1 | – | inconclusive [inhibitor, single point]
20 | COc1cc(S(=O)(=O)N(Cc2ccc(C)cc2)Cc2ccco2)ccc1-n1cnnn1 | – | inconclusive [inhibitor, partial curve]
21 | O=C(Cc1c[nH]c2ccccc12)NCc1ccc2c(c1)OCO2 | – | inconclusive [inhibitor, single point]
22 | COc1cc2c(cc1OC)CN(C(C)C(=O)Nc1cccc(S(=O)(=O)N3CCOCC3)c1)CC2 (stereo unspecified) | – | inconclusive [inhibitor, single point]
23 | CCN(CC(O)Cn1c2ccccc2c2ccccc21)S(=O)(=O)c1ccc(C)cc1 (stereo unspecified) | – | inconclusive [inhibitor, single point]
24 | CCCN1Cc2cccc(C(=O)Nc3cc(Cl)ccc3C)c2C1=O | – | inconclusive [inhibitor, single point]

Row | SMILES | activity change, negative = growth inhibition | Potency
25 | CC(=O)N1CCC(C(=O)Nc2ccc(S(=O)(=O)N3CCC(C)CC3)cc2)CC1 | – | inconclusive [inhibitor, single point]
26 | COc1ccc(CCNC(=O)c2ccc(Br)cc2)cc1 | inactive: -20.7% | –
27 | c1ccc(Nc2nc3ccccc3n3nnnc23)cc1 | – | inconclusive [inhibitor, single point]
28 | Cc1ccc(C)c(NC(=O)C(CC(C)C)N2Cc3ccccc3C2=O)c1 (stereo unspecified) | – | inconclusive [inhibitor, single point]
29 | Cc1cc(C)c2c(c1)c(C)cc1nnc(SCC(=O)c3ccccc3)n12 | – | inconclusive [inhibitor, single point]
30 | Cc1cc(O)cc(O)c1C(=O)Cc1cnn(-c2ccccc2)c1 | – | inconclusive [inhibitor, full curve, poor fit]
31 | CCC(C)NC(=O)c1cn(-c2cccc(OC)c2)c(=O)c2ccccc12 (stereo unspecified) | inactive: 8.42% | –
32 | COc1ccc(C2/C=C\CN(CC(C)C)CC(=O)N2Cc2ccc(F)cc2)cc1 (stereo unspecified) | – | inconclusive [inhibitor, single point]
33 | O=C(N/N=C/c1cc2c(cc1Cl)OCO2)c1cc(-c2ccccc2)n[nH]1 | – | inconclusive [inhibitor, single point]
34 | Cc1cccc(NC(=O)c2sc3ncnc(N(C)C4CCCCC4)c3c2C)c1C | – | inconclusive [inhibitor, single point]
35 | O=c1cc(CN2CCCCCCC2)c2ccccc2o1 | – | inconclusive [inhibitor, single point]
36 | CCCS(=O)(=O)c1cnc(C2COc3ccccc3O2)nc1N (stereo unspecified) | – | active: 16.4 µM
37 | CC1(C)CC(=O)c2cnc(NC(=O)Cc3ccc(Cl)cc3)nc2C1 | – | active: 23.1 µM
38 | CC(C)(C)c1csc(NC(=O)c2ccccc2O)n1 | – | inconclusive [inhibitor, partial curve]
39 | O=C(c1cc(COc2c(F)cccc2F)on1)N1CCC(c2ccccc2F)C1 (stereo unspecified) | – | inconclusive [inhibitor, partial curve]
40 | COC(=O)c1ccc([C@H]2CC(=O)O2)cc1 | – | inconclusive [inhibitor, single point]
41 | COC(=O)C[C@@H]1OC[C@H](C(C)C)N1S(=O)(=O)c1ccc(C)cc1 | – | inconclusive [inhibitor, single point]
42 | COc1ccc(-c2csc3ncnc(NCCCO)c23)cc1 | – | active: 8.2 µM
43 | Clc1ccc(Cn2cc(/C=N/n3cnnc3)c3ccccc32)c(Cl)c1 | – | inconclusive [inhibitor, single point]
44 | N#Cc1ccc(S(=O)(=O)N2CCCCC2c2cc(C(=O)Nc3cccc4c3CCCC4)no2)cc1 (stereo unspecified) | – | inconclusive [inhibitor, single point]
45 | COc1cccc(NC(=O)c2c(C)oc3nc(C)nc(N4CCCC4)c23)c1 | inactive: -11.9% | –
46 | COc1ccc(OC(=O)N2CCOCC2)cc1 | inactive: -1.52% | –
47 | CCN1CCN(Cc2c(O)ccc3oc(C)c(C(=O)Nc4cccc(C(F)(F)F)c4)c23)CC1 | – | inconclusive [inhibitor, single point]
48 | CCN1C(=O)c2cccc3c(S(=O)(=O)Nc4ncccc4C)ccc1c23 | – | inconclusive [inhibitor, single point]

Row | SMILES | activity change, negative = growth inhibition | Potency
49 | Cc1nnc(SCC(=O)N2CCC(c3noc4ccc(F)cc34)CC2)s1 | – | inconclusive [inhibitor, partial curve]
50 | CC(=NNC(=S)Nc1ccccc1Cl)c1ccccn1 | – | active: 0.146 µM
51 | CCCOc1ccc(C(=O)CCNc2cccc(Cl)c2)cc1 | – | inconclusive [inhibitor, single point]
52 | CN(C)c1ccc(CN2CCC(C(=O)NC(c3ccc(F)cc3)c3ccc4ccccc4n3)CC2)cc1 (stereo unspecified) | – | active: 23.1 µM
53 | Cc1cccc(C)c1NC(=O)c1cc(S(=O)(=O)N2CCc3ccccc3C2)ccc1F | – | inconclusive [inhibitor, single point]
54 | FC(F)(F)c1cc(Cl)c2nc(-c3ccccc3)c(Cc3cccc(Cl)c3)n2c1 | – | inconclusive [inhibitor, single point]
55 | C=CCOn1c(C)c(C(C)=O)c2c3nonc3ccc21 | inconclusive: -36.8% [inhibitor] | –
56 | CCCNC(=O)c1onc(CSc2ccc(Cl)cc2)c1C(=O)NCC1CC1 | – | inconclusive [inhibitor, single point]
57 | Cc1ccc2c(c1)N(C(=O)CCC(=O)NCc1cccc(F)c1)CC(C)O2 (stereo unspecified) | – | inconclusive [inhibitor, single point]
58 | CCOc1cccc(/C(O)=C2/C(=O)C(=O)N(CCOC)C2c2ccncc2)c1 (stereo unspecified) | inactive: -0.467% | –
59 | COc1ccc(CC(=O)Nc2nc3c(s2)CCCC3)cc1 | – | inconclusive [inhibitor, full curve]
60 | Nn1c(SCC(=O)Nc2ccccc2)nnc(Cc2ccccc2)c1=O | inactive: -5.64% | –
61 | COc1ccccc1-n1cnc2cc(C(=O)N3CCOCC3)ccc21 | inactive: 23.5% | –
62 | CCC(=O)N1CCc2cc(S(=O)(=O)CCC(=O)N3CCN(c4cccc(C)c4C)CC3)ccc21 | inactive: -14.2% | –
63 | CN(C)c1cccc(NC(=O)C2Cc3c(-c4ccccc4Oc4ccccc4)ccnc3O2)c1 (stereo unspecified) | – | inconclusive [inhibitor, single point]
64 | CC(C)CCC(C(=O)NC(C)c1ccccc1)C(=O)NC(C)c1ccccc1 (stereo unspecified) | inactive: -4.83% | –
65 | CCOc1cccc2sc(N(CCCN(C)C)C(=O)c3ccc(S(=O)(=O)N(CC)Cc4ccccc4)cc3)nc12 | – | inconclusive [inhibitor, single point]
66 | Cc1cccc(-c2ncc(CN3CCCC(CO)(Cc4ccccc4C)C3)cn2)c1 (stereo unspecified) | inactive: -25% | –
67 | COc1ccccc1C(=O)Nc1cccc(Oc2c(F)c(F)c(F)c(F)c2F)c1 | – | inconclusive [inhibitor, single point]
68 | Cc1ccc(C(=O)C2=C(O)C(=O)N(Cc3cccnc3)C2c2cccc(Oc3ccccc3)c2)o1 (stereo unspecified) | – | inconclusive [inhibitor, single point]
69 | CCOC(=O)c1cccc(NC(=O)CCS(=O)(=O)c2ccc3c(c2)CCN3C(=O)CC)c1 | inactive: -29% | –
70 | CS(=O)(=O)N1CCN(c2ncnc3c2cnn3-c2ccccc2)CC1 | inactive: -21.6% | –
71 | COc1ccc(-c2csc(N3CCC(c4ccccc4)C3)n2)cc1 (stereo unspecified) | – | inconclusive [inhibitor, single point]
